The supplement of paper PMC10670038
Structures can show the parent of a compound that is named as a salt. ± gives the standard deviation of the averaged measurements. Over roughly 2,000 compounds, “relative cell viability vs DMSO, compound + 0.2 uM CuET” has its median near 1; the lowest 2% begin near 0.25. Some of the results follow.

Tested on: TE10
Assay: relative cell viability vs DMSO, compound + 0.2 uM CuET (fraction); TE10 is an esophageal squamous carcinoma line; higher = less cytotoxic
Conditions: 2 µM; co-treatment: CuET (bis(diethyldithiocarbamate)copper) 0.2 uM; 48 h
Method: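 TE10 ESCC cells (1,000/well, 384-well plates) were treated with Selleck bioactive library compounds at 2 uM combined with 0.2 uM CuET (copper diethyldithiocarbamate) for 48 h. Viability was read by CellTiter-Glo and expressed relative to DMSO wells. Two technical replicates (A, B).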

Compared with `COc1cc2ncnc(Nc3cccc(Cl)c3)c2cc1OC` [AG-1478 (Tyrphostin AG-1478)], `COc1cccc2cc(-c3nc([C@H]4CC[C@H](C(=O)O)CC4)n4ncnc(N)c34)[nH]c12` is lower in relative cell viability: 1.1 ± 0.046 for the first, 0.747 ± 0.029 for the second.

`O=c1oc2cc(O)ccc2s1` [Tioxolone] and `O=c1cc(-c2ccccc2)oc2cc(O)c(O)c(O)c12` [Baicalein] are within error of each other in relative cell viability: 0.895 ± 0.016 for the first, 0.838 ± 0.18 for the second.

Going from `O=c1ccn([C@@H]2O[C@H](CO)[C@@H](O)[C@H]2O)c(=O)[nH]1` [Uridine] to `COc1ccc(C[C@H](N)C(=O)N[C@H]2[C@@H](O)[C@H](n3cnc4c(N(C)C)ncnc43)O[C@@H]2CO)cc1` [Puromycin 2HCl], the relative cell viability falls from 1.23 ± 0.079 to 0.249 ± 0.0061.

`CC(C)n1c(/C=C/C(O)CC(O)CC(=O)O)c(-c2ccc(F)cc2)c2ccccc21` (configuration not stated) [Fluvastatin Sodium] and `CN(C)Cc1cccc(N=C(c2ccccc2)c2c(O)[nH]c3cc(C(=O)N(C)C)ccc23)c1` are within error of each other in relative cell viability: 0.89 ± 0.063 for the first, 1.1 ± 0.2 for the second.

Going from `CCCCNc1cc(C(=O)O)cc(S(N)(=O)=O)c1Oc1ccccc1` [Bumetanide] to `NC(=O)OCC(COC(N)=O)c1ccccc1` [Felbamate], the relative cell viability falls from 1.44 ± 0.035 to 1.18 ± 0.17.

First: COC(=O)Nc1ccc(-c2nc(N3CCOCC3)c3cnn(C4CCN(C(=O)OC)CC4)c3n2)cc1
Second: CCc1c(O)cc(O)c(C(=O)c2ccc(OCCN3CCOCC3)c(OC)c2)c1CC(=O)N(CCOC)CCOC
The relative cell viability of the first is higher: 0.785 ± 0.018 for the first, 0.613 ± 0.011 for the second.

First: CNC[C@H](O)[C@@H](O)[C@H](O)[C@H](O)CO [Meglumine]
Second: CC(=O)N[C@@H](CS)C(=O)O [Acetylcysteine]
The relative cell viability of the first is lower: 1.029 ± 0.0058 for the first, 1.1 ± 0.052 for the second.

`COC(=O)N[C@H](C(=O)N[C@@H](Cc1ccccc1)[C@@H](O)CN(Cc1ccc(-c2ccccn2)cc1)NC(=O)[C@@H](NC(=O)OC)C(C)(C)C)C(C)(C)C` [Atazanavir Sulfate] and `O=C(O)Cc1cccc(OCCCN(Cc2cccc(C(F)(F)F)c2Cl)CC(c2ccccc2)c2ccccc2)c1` are within error of each other in relative cell viability: 1.08 ± 0.11 for the first, 1.01 ± 0.068 for the second.

`CCC[S+]([O-])c1ccc2[nH]c(NC(=O)OC)nc2c1` (configuration not stated) [Albendazole Oxide] and `C[C@]1(c2nc3c(C(N)=O)cccc3[nH]2)CCCN1` [Veliparib (ABT-888)] are within error of each other in relative cell viability: 1.01 ± 0.017 for the first, 0.754 ± 0.25 for the second.

`Cc1ccnc(NS(=O)(=O)c2ccc(N)cc2)n1` [Sulfamerazine] and `CCN(CC)CCOC(=O)c1ccc(N)cc1` [Procaine HCl] are within error of each other in relative cell viability: 1.04 ± 0.14 for the first, 1.23 ± 0.16 for the second.

`OC(CC1c2ccccc2-c2cncn21)C1CCCCC1` (configuration not stated) and `CNCCCC12CCC(c3ccccc31)c1ccccc12` [Maprotiline HCl] are within error of each other in relative cell viability: 1.13 ± 0.055 for the first, 1.14 ± 0.1 for the second.

`COc1cc(C2Oc3cc([C@H]4Oc5cc(O)cc(O)c5C(=O)[C@@H]4O)ccc3OC2CO)ccc1O` (some centres not stated) [Silymarin] and `C[C@@H]1O[C@@H](OC[C@H]2O[C@@H](Oc3c(-c4ccc(OCCO)c(OCCO)c4)oc4cc(OCCO)cc(O)c4c3=O)[C@H](O)[C@@H](O)[C@@H]2O)[C@H](O)[C@H](O)[C@H]1O` [Troxerutin] are within error of each other in relative cell viability: 0.988 ± 0.13 for the first, 1.11 ± 0.042 for the second.

Going from `COc1cc(C2Oc3cc([C@H]4Oc5cc(O)cc(O)c5C(=O)[C@@H]4O)ccc3OC2CO)ccc1O` (some centres not stated) [Silibinin] to `N#Cc1ccc(COC[C@H]2O[C@@H](n3c(NCc4ccc(Cl)c(Cl)c4)nc4c(N)ncnc43)[C@H](O)[C@@H]2O)cc1`, the relative cell viability falls from 1.08 ± 0.031 to 0.939 ± 0.0025.

Going from `CC[C@H](C)C(=O)O[C@H]1C[C@@H](C)C=C2C=C[C@H](C)[C@H](CC[C@@H]3C[C@@H](O)CC(=O)O3)[C@H]21` [Lovastatin] to `CC[C@H]1OC(=O)C[C@@H](O)[C@H](C)[C@@H](O[C@@H]2O[C@H](C)[C@@H](O)[C@H](N(C)C)[C@H]2O)[C@@H](CCN2C[C@H](C)C[C@H](C)C2)C[C@@H](C)C(=O)/C=C/C(C)=C/[C@@H]1CO[C@@H]1O[C@H](C)[C@@H](O)[C@@H](OC)[C@H]1OC` [Tilmicosin], the relative cell viability rises from 0.991 ± 0.077 to 1.29 ± 0.055.

Going from `Clc1ccc(C(Cn2ccnc2)OCc2ccc(Sc3ccccc3)cc2)c(Cl)c1` (configuration not stated) [Fenticonazole Nitrate] to `Cn1nnc(-c2ccc3c(c2)[nH]c2nc(Cc4ccccc4)nc(NC4CCC(N)CC4)c23)n1` (configuration not stated), the relative cell viability rises from 0.793 ± 0.015 to 1.18 ± 0.092.

Compared with `O=C1CCC[C@@H]2[C@H]3CCC[N+]4([O-])CCC[C@@H](CN12)[C@@H]34` (some centres not stated) [Oxymatrine], `CC(=O)O[C@H]1C[C@@H]2CC[C@@H]3[C@H](CC[C@@]4(C)[C@H]3C[C@H]([N+]3(C)CCCCC3)[C@@H]4OC(C)=O)[C@@]2(C)C[C@@H]1N1CCCCC1` [Vecuronium Bromide] is higher in relative cell viability: 1.18 ± 0.025 for the first, 1.38 ± 0.14 for the second.

Going from `CCN(CC)C(=O)/C(C#N)=C/c1cc(O)c(O)c([N+](=O)[O-])c1` [Entacapone] to `C[C@]12C=CC(=O)C=C1CC[C@H]1[C@@H]3C[C@@H](O)[C@](O)(C(=O)CO)[C@@]3(C)C[C@H](O)[C@@]12F` [Triamcinolone], the relative cell viability rises from 0.775 ± 0.061 to 1.06 ± 0.053.

Going from `CC1(C)O[C@@H]2C[C@H]3[C@@H]4CCC5=CC(=O)CC[C@]5(C)[C@@]4(F)[C@@H](O)C[C@]3(C)[C@]2(C(=O)CCl)O1` [Halcinonide] to `Cc1coc2c1C(=O)C(=O)c1c-2ccc2c1CCCC2(C)C` [Tanshinone IIA], the relative cell viability falls from 0.905 ± 0.0084 to 0.283 ± 0.084.

`C[C@@H](O)[C@H]1C(=O)N2C(C(=O)O)=C(S[C@@H]3CN[C@H](C(=O)N(C)C)C3)[C@H](C)[C@H]12` [Meropenem] gave a relative cell viability of 1.15 ± 0.065.
